According to PubChem BioAssay AID1347071 (National Center for Advancing Translational Sciences (NCATS), 2019):
Out of some 410,000 compounds screened, about 260 (0.063%) were called active. Inconclusive means that the source gave no clear call. Such entries were picked first, then a sample of the others. Calls follow the shape of the dose curve; as a rule, active = well fitted activation curve with a large enough effect; inconclusive = small, poorly fitted or top-dose-only effect; inactive = no such curve, though single readings can be large or run the other way. Potencies of inconclusive entries are left out as doubtful fits.

assay: qHTS for compounds that reverse cellular toxicity of Amyloid beta (A-beta) peptide in yeast: Primary Screen; details: yeast expressing A-beta42, growth rescue, OD600, 48 h; growth rescue: at 46.1 µM (top of the series), 0% DMSO, 100% iron-clioquinol control; also: nearly all actives have a fitted effect of over 55% in size
Method in brief: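 Yeast growth medium received pinned compounds, then yeast cells expressing toxic A-beta were added; plates incubated at 30 C for 48 hr. Growth read as absorbance at 600 nm, normalized to DMSO and equimolar FeCl3 plus clioquinol controls.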
Potency is read from the fitted curve at half-maximal effect; tags tell the direction and shape of the fitted curve.

| SMILES | Potency | growth rescue |
| --- | --- | --- |
| Cc1ccc(NC(=S)NC(=O)C2CC2)c(C)c1 | inconclusive [activator, partial curve] |  |
| CC1(C)CC(=O)C(C(=O)c2ccccc2)C(=O)C1 |  | inconclusive: 40.6% [activator] |
| CCCCNS(=O)(=O)c1ccc2nc(SCC(=O)Nc3cccc(F)c3)[nH]c2c1 | inconclusive [activator, single point] |  |
| CC1=C(C(=O)Nc2ccc(Cl)cc2)C(c2ccccc2C)n2ncc(C(=O)Nc3ccc(C)cc3)c2N1 (centres undefined) | inconclusive [activator, single point] |  |
| Cc1ccc(-n2cnnn2)c2cccnc12 |  | inactive: -2.67% |
| C=CCOCCN1C(=O)C2C(c3ccccc3)C=CC(c3ccccc3)C2C1=O (centres undefined) |  | inactive: 13.4% |
| O=C1NC(=S)CN1c1ccccc1 | inconclusive [activator, full curve, poor fit] |  |
| CCCCOc1ccc(NC(=O)Nc2nnc(C)s2)cc1 |  | inactive: -4.52% |
| O=C(Nc1ccc(N2CCN(C(=O)c3ccco3)CC2)cc1)C(c1ccccc1)c1ccccc1 | inconclusive [activator, full curve] |  |
| O=C(NC(=S)NNC(=O)c1ccco1)c1ccccc1 | inconclusive [activator, partial curve, poor fit] |  |
| Cc1cc(C)c(C(=O)CC(=O)c2cccnc2)c(C)c1 | inconclusive [activator, single point] |  |
| O=C(CCc1nc2cccnc2n1Cc1cccs1)Nc1cccc(C(F)(F)F)c1 | inconclusive [activator, single point] |  |
| Cc1ccc(NNC2CC(=O)N(c3cccc(Cl)c3)C2=O)cc1 (centres undefined) | inconclusive [activator, partial curve, poor fit] |  |
| CC1C=CCC2C(=O)N(c3cccc(C(=O)Nc4ccc(Br)cc4)c3)C(=O)C12 (centres undefined) | inconclusive [activator, single point] |  |
| O=C(N/N=C/c1cccc(C(F)(F)F)c1)c1cc2c(s1)-c1ccccc1CC2 |  | inactive: 9.45% |
| CCCNC(=S)Nc1cc2oc3ccccc3c2cc1OC | inconclusive [activator, partial curve] |  |
| CCC(Oc1ccccc1)C(=O)Nc1nc2ccccc2[nH]1 (centres undefined) | inconclusive [activator, partial curve] |  |
| CSC(=S)N/N=C/c1ccccc1 | inconclusive [activator, full curve] |  |
| S=C1NCN(Cc2ccco2)CN1CCc1ccccc1 | active: 14.1 µM |  |
| COc1ccc(/C=N/NC(=S)Nc2c(C)n(C)n(-c3ccccc3)c2=O)cc1OC |  | inactive: -18.5% |
| Fc1ccc(/C=N/n2c(C3CCCCC3)n[nH]c2=S)cc1 | active: 12.6 µM |  |
| Cc1ccc(-n2nc(C(=O)N3CCN(c4cccc(C(F)(F)F)c4)CC3)c(=O)n(C)c2=O)cc1 | inconclusive [activator, single point] |  |
| Cc1ccc(O)c(N=NC2=C(O)CC(C)(C)CC2=O)c1 | inconclusive [activator, full curve, poor fit] |  |

| SMILES | Potency | growth rescue |
| --- | --- | --- |
| CSc1ccccc1C(=O)NC1CCCN(c2ccc(C(F)(F)F)cn2)C1 (centres undefined) | active: 22.4 µM |  |
| CCNC(=O)C1(C)CCN(C(=O)c2ccc(OC)c(OC)c2)C1 (centres undefined) |  | inactive: 3.91% |
| Cc1ccsc1CN(C(=O)c1ccc(OCC(C)C)cc1)C1CCS(=O)(=O)C1 (centres undefined) |  | inactive: 10.1% |
| CC(=O)c1cccc(NC(=S)NC(=O)Cc2ccccc2)c1 | inconclusive [activator, single point] |  |
| S=C1Nc2ccccc2Sc2ccc(Cl)cc21 | inconclusive [activator, partial curve, poor fit] |  |
| COc1ccc(CNC(=O)CSc2ncc3c(n2)-c2ccc(Cl)cc2N(Cc2ccc(F)cc2)S3(=O)=O)cc1OC |  | inactive: -13.7% |
| C#C[C@]1(O)CC[C@H]2[C@@H]3CCc4cc(O)ccc4[C@H]3CC[C@@]21C | inconclusive [activator, partial curve, poor fit] |  |
| Cc1cc(C)nc(N/N=C/c2ccc(Cl)cc2)n1 | inconclusive [activator, partial curve] |  |
| COc1ccc(C)cc1Nc1n[n+](-c2ccccc2)c(-c2ccc(N(C)C)cc2)s1 |  | inactive: -12% |
| CC1CCCC(NC(=O)CCNS(=O)(=O)c2ccc(Br)cc2)C1C (centres undefined) | inconclusive [activator, partial curve, poor fit] |  |
| COc1cc(OC)c(-c2cc(C(=O)NCc3ccc(F)cc3)c3c(-c4ccccc4)[nH]nc3n2)cc1OC |  | inactive: 7.21% |
| S=C1NCN(CCc2ccccc2)CN1Cc1ccccc1 | inconclusive [activator, full curve] |  |
| O=C(Cn1cnc(S(=O)(=O)N2CCCC2)c1)Nc1cccc(Br)c1 | inconclusive [activator, single point] |  |
| S=C(N/N=C/c1ccccc1Cl)Nc1cccc(Cl)c1Cl | inconclusive [activator, single point] |  |
| CCOC(=O)CNC(=O)c1sc2ncnc(N3CCc4ccccc4C3)c2c1C | inconclusive [activator, full curve, poor fit] |  |
| COc1cc2[nH]c(Cl)c([N+](=O)[O-])c2cc1OC | inconclusive [activator, single point] |  |
| COc1ccc(OC)c(NC(=O)NC2CCCc3ccccc32)c1 (centres undefined) | inconclusive [activator, partial curve, poor fit] |  |
| CCOc1ccc(CN2CCc3nc(Nc4ccc5c(c4)OCCO5)ncc3C2)cc1 |  | inactive: -6.61% |
| O=S(=O)(c1ccccc1)N(CC(F)(F)F)c1ccc(C(O)(C(F)(F)F)C(F)(F)F)cc1 | inconclusive [activator, single point] |  |
| COc1ccc(S(=O)(=O)n2nc(C)c(S(=O)(=O)N3CCC(C)CC3)c2C)cc1OC |  | inactive: 0.221% |
| COc1ccc(Cn2c(=O)c3cccnc3n(CC(=O)Nc3c(C)cc(C)cc3C)c2=O)cc1 |  | inactive: -19.1% |
| S=C(NCC1CCCO1)N1CCN(c2nc(-c3ccccc3)cs2)CC1 (centres undefined) | inconclusive [activator, single point] |  |
| CN(CCOc1ccccc1)C(=S)Nc1ccc(OC(F)F)cc1 | inconclusive [activator, single point] |  |

| SMILES | Potency | growth rescue |
| --- | --- | --- |
| O=C(N/N=C/c1cccc(Oc2ccccc2)c1)c1ccc(O)cc1O | inconclusive [activator, full curve, poor fit] |  |
| Cc1ccc(C(=O)CSc2nc(C)cc(=O)[nH]2)cc1 | inconclusive [activator, partial curve, poor fit] |  |
| O=C(Nc1ccc(-n2cnnn2)cc1)C1CCCCC1 |  | inactive: 7.56% |
| COc1ccc(-n2c(C)cc(C(=O)CSc3ccc(NC(C)=O)cc3)c2C)cc1 |  | inactive: -2.33% |
| C=Cc1ccc(Cn2c(C)c(C(=O)NCc3ccc4c(c3)OCO4)sc2=O)cc1 | inconclusive [activator, single point] |  |
| CC(=O)NC(c1ccc(Cl)cc1)c1ccc2cccnc2c1O (centres undefined) | inconclusive [activator, single point] |  |
| Fc1ccccc1/C=N/n1c(C2CCCCC2)n[nH]c1=S | inconclusive [activator, single point] |  |
| O=C(COC(=O)C1CC1)Nc1ccc(Oc2ccccc2)cc1 | inconclusive [activator, partial curve, poor fit] |  |
| CCOc1ccc2ncc(S(=O)(=O)c3ccccc3)c(N3CCN(c4ccccc4)CC3)c2c1 |  | inactive: -7.16% |
| COc1ccc(OCc2nc3ccccc3n2C(C)c2ccccc2)cc1 (centres undefined) | inconclusive [activator, single point] |  |
| O=C1C2C3C=CC(C4CC34)C2C(=O)N1/N=C/c1ccc([N+](=O)[O-])o1 (centres undefined) |  | inactive: -71.2% |
| O=S(=O)(c1ccc(Br)cc1)N1CCN(c2cc(-c3ccccc3)nc3ncnn23)CC1 |  | inactive: -1.91% |
| CCCCCC(=O)NC(=S)NNC(=O)CC | inconclusive [activator, partial curve] |  |
| O=C(Nc1nnc(-c2ccc(Cl)cc2)o1)C1=COCCO1 | inconclusive [activator, partial curve, poor fit] |  |
| CCOC(=O)C(C(=O)Nc1ccccc1)C1CCCCC1 (centres undefined) | inconclusive [activator, single point] |  |
| CC(C)c1ccc(NC(=O)Cn2nnc(C(=O)NCc3ccco3)c2N)cc1 | inconclusive [activator, partial curve, poor fit] |  |
| COc1ccc(/C(=N/O)C(C)(C)NO)cc1 | inconclusive [activator, single point] |  |
| Cn1c(=O)c2c(SCC(=O)N3CCc4ccccc43)nc(-c3cccc(F)c3)nc2n(C)c1=O |  | inactive: -3.66% |
| Cc1ccc2nc(NC(=O)Cc3cccs3)sc2c1 | inconclusive [activator, single point] |  |
| Cc1ccc(NC(=O)CN2C(=O)C(c3ccc(F)cc3)=NC23CCCCC3)c(C)c1 | inconclusive [activator, partial curve, poor fit] |  |
| Fc1cccc2sc(Nc3nnc(-c4ccco4)o3)nc12 |  | inactive: -2.18% |
| CCCCCCCCN1C(=O)[C@H](CC(=O)N2CCCC2)C[C@@]2(C(=O)OC)CCCCC=C12 | inconclusive [activator, single point] |  |
| Cc1ccc(C(=O)Nc2ccccc2Oc2ccccc2)cc1[N+](=O)[O-] | inconclusive [activator, partial curve, poor fit] |  |
